In article PMC11472320, “Computationally Driven Discovery of a BCR-ABL1 Kinase Inhibitor with Activity in Multidrug-Resistant Chronic Myeloid Leukemia” (Journal of Medicinal Chemistry, 2024) one finds IC50 data, which are given here for 5 compounds.

A word on the IC50: it is the midpoint of a concentration-inhibition curve.

One experiment addresses BCR-ABL1 H396P (Homo sapiens, UniProt P00519, H396P). Particulars: read-out: Kinase IC50 BCR-ABL1 H396P; [ATP] = 10 µM, n = 2.
The next experiment addresses BCR-ABL1 M351T (Homo sapiens, UniProt P00519, M351T). Description: biochemical.
For the next experiment, the target named is BCR-ABL1 T315I (Homo sapiens, UniProt P00519, T315I). Conditions: read-out: Kinase IC50 BCR-ABL1 T315I; [ATP] = 10 µM, n = 2.

On to `COc1cc(Nc2c(C#N)cnc3cc(OCCON4CCN(C)CC4)c(OC)cc23)ccc1Cl` [14a], for which the IC50 on BCR-ABL1 H396P was less than 1 nM; against BCR-ABL1 M351T it was 1 nM; on BCR-ABL1 T315I, 95 nM.

On to `COc1cc(Nc2c(C#N)cnc3cc(OCCON4CCN(C)CC4)c(OC)cc23)c(F)cc1Cl` [8a, 4-((4-Chloro-2-fluoro-5-methoxyphenyl)amino)-6-methoxy-7-(2-((4-methylpiperazin-1-yl)oxy)ethoxy)quinoline-3-carbonitrile], for which the IC50 on BCR-ABL1 H396P is less than 1 nM; against BCR-ABL1 M351T it was 2 nM; at BCR-ABL1 T315I, 166 nM.

Turning to `COc1cc2c(Nc3cccc(OC)c3F)c(C#N)cnc2cc1OCCON1CCN(C)CC1` [13a, 4-((2-Fluoro-3-methoxyphenyl)amino)-6-methoxy-7-(2-((4-methylpiperazin-1-yl)oxy)ethoxy)quinoline-3-carbonitrile], the IC50 amounted to 15 nM on BCR-ABL1 H396P, 24 nM on BCR-ABL1 M351T and 445 nM on BCR-ABL1 T315I.

With `COc1cc2c(Nc3cccc(OC)c3Cl)c(C#N)cnc2cc1OCCON1CCN(C)CC1` [12a, 4-((2-Chloro-3-methoxyphenyl)amino)-6-methoxy-7-(2-((4-methylpiperazin-1-yl)oxy)ethoxy)quinoline-3-carbonitrile], the results for the IC50 on BCR-ABL1 H396P, at BCR-ABL1 M351T and on BCR-ABL1 T315I were 20 nM, 31 nM and 368 nM, respectively.

Consider `COc1cc(Cl)ccc1Nc1c(C#N)cnc2cc(OCCON3CCN(C)CC3)c(OC)cc12` [15a, 4-((4-Chloro-2-methoxyphenyl)amino)-6-methoxy-7-(2-((4-methylpiperazin-1-yl)oxy)ethoxy)quinoline-3-carbonitrile], for which the IC50 at BCR-ABL1 H396P is 7 nM; on BCR-ABL1 M351T, 13 nM; on BCR-ABL1 T315I, 220 nM.
